Data reported in ChEMBL document CHEMBL1157539, “Thousands of chemical starting points for antimalarial lead identification” (Nature, 2010).
The full ranking holds about 13,000 compounds; the median of “IFI” is about 4, and the highest 2% start at about 17. The list shows a part of the results.

Test: GSK_TCMDC: Inhibition Frequency Index (IFI). The number of non-kinase HTS assays where a compound showed > 50 % inhibition, expressed as a percentage of the number of such assays in which the compound was tested (-0 is zero)
Type: functional

| Structure (SMILES) | IFI [%] |
| --- | --- |
| COc1ccc2cc(-c3nc(-c4c(Cl)cccc4Cl)[nH]c3-c3ccnc(NCCCN4CCCCC4C)c3)ccc2c1 (configuration not stated) | 7.19 |
| Cn1c(Sc2ncnc3sccc23)nc2ccccc21 | 1.47 |
| O=C(Nc1ccc(F)cc1)NC1CCN(CCCCCNC(=O)C2CC2c2ccc(Cl)c(Cl)c2)CC1 (configuration not stated) | 12.3 |
| Nc1nccc(-c2ccc3c(-c4cccc(F)c4)cnc(N)c3c2)n1 | 2.5 |
| Fc1ccc(-c2cc3ncnc(N4CCN(CCN5CCCC5)CC4)c3s2)cc1 | 1.72 |
| CO/N=C(\C)c1ccc2c(c1)CCN(CCC1CCC(NC(=O)/C=C/c3ccc(F)cc3)CC1)CC2 (configuration not stated) | 9.66 |
| O=C(c1cc2ccccc2o1)N1CCc2cc3nccc(N4CCN5CCC[C@H]5C4)c3cc21 | 4.44 |
| CNCCCNc1ccnc2cc(Cl)ccc12 | -0 |
| COc1cc(C(=O)NCc2nn(CCN3CCC(N4CCCC4)CC3)cc2-c2ccc(Cl)c(Cl)c2)cc(OC)c1OC | 0 |
| COCCNc1nc(N2CCC(CNC(=O)c3ccc(-c4ccc(C(=O)N(C)C)cc4C)cc3)CC2)nc2cc(OC)c(OC)cc12 | 3.64 |
| CC(C)CN(C)Cc1ccc(-c2ccc(-c3nc4ccccc4[nH]3)s2)cc1 | 1.82 |
| Cc1ccc2[nH]c3c(NCCCN(C)C)ncnc3c2c1 | 0 |
| c1ccc2[nH]c(-c3ccc(-c4ccc(CNCCc5ccncc5)cc4)s3)nc2c1 | 8 |
| CCOC(=O)c1c(-c2ccccc2)c(C(=O)OCC)n2ccccc12 | 2.94 |
| CC1(C)NC(N)=NC(=N)N1OCc1nc(N)nc(Nc2ccccc2)n1 | 0.74 |
| CCOC(=O)c1ccc(NC(=O)NC2CCN(CCCCCNC(=O)/C=C/c3ccc(Cl)c(Cl)c3)C2)cc1 (configuration not stated) | 9.16 |
| Cc1cc(-c2ccc(CNCCc3cccs3)cc2)ccc1S(=O)(=O)NCc1ccccc1 | 13.1 |
| COc1ccc(CNC(=N)Nc2nc(-c3ccc(OCCCn4ccnc4)cc3)cs2)cc1 | 4.48 |
| CN1CCCC(CN2CCN(Cc3ccc(-c4ccc(-c5nc6cc(F)ccc6[nH]5)s4)cc3)CC2)C1 (configuration not stated) | 6.94 |
| CCCN1CCN(c2cc(S(=O)(=O)Nc3ccc(C(=O)NCc4cccc(C(F)(F)F)c4)cc3)ccc2OC)CC1 | 24.1 |
| Ic1cc(Nc2ncnc3ccsc23)ccc1OCc1ccccc1 | 0.8 |
| COc1cccc(Nc2nc(C)cc(Nc3cccc(C#N)c3)n2)c1 | 9.09 |
| CN(C)S(=O)(=O)c1cc(-c2ccc3nccc(-c4cccc(S(N)(=O)=O)c4)c3c2)cnc1N | 3.85 |

| Structure (SMILES) | IFI [%] |
| --- | --- |
| COc1ccc(C(=O)N2CCC3(CC2)C(=O)N(CC(=O)NCC2CCCCC2)CN3c2ccccc2)cc1 | 5 |
| CCOC(=O)c1cc(C(=O)NCCCCN2CCC(c3ccc(CC)cc3OCC)CC2)ccc1-c1ccc(C(F)(F)F)cc1 | 10.6 |
| CCc1cc(-c2n[nH]c(C(F)(F)F)c2-c2ccccc2)c(O)cc1OC | 5.63 |
| COc1cc(Nc2nccc(N3CCC(NC(=O)Nc4cc(C)ccc4C)C3)n2)cc(OC)c1OC (configuration not stated) | 0 |
| Cc1noc(C)c1-c1cccc(CNCc2cccc(-c3ccc(-c4nc5cc(C(F)(F)F)ccc5[nH]4)s3)c2)c1 | 3.96 |
| Cc1ccc2cc(NCCCCCCCCON3C(N)=NC(N)=NC34CCCCC4)ccc2n1 | 11.6 |
| Cc1ccc(C(c2nnnn2C2CCCC2)N(Cc2ccco2)Cc2ccccc2Cl)cc1 (configuration not stated) | 2.22 |
| Cc1cc(NC(=O)Nc2ccc3sccc3c2)c2ccccc2n1 | 5.38 |
| O=C(NCC(CCCN1CCC(c2c[nH]c3ccccc23)CC1)c1ccccc1)Nc1ccc(Cl)c(Cl)c1 (configuration not stated) | 9.93 |
| O=C(/C=C/c1ccc([N+](=O)[O-])cc1)N1CCC(NS(=O)(=O)c2cccc(C(F)(F)F)c2)CC1 | 2.21 |
| CN1CCC(N2CCN(Cc3cccc(-c4cccc(-c5nc6ccccc6[nH]5)c4)c3)CC2)CC1 | 5.63 |
| Cc1ccc2nc(C)n(C3CCN(C(=O)C4(c5ccccc5)CC4)CC3)c2c1 | 2.63 |
| O=C(CCCCCCc1ccccc1)Nc1ccc2nc3c(c(NCc4ccccc4)c2c1)CCCC3 | 9.59 |
| O=C(Nc1cccc(Cl)c1)c1cnc(N2CCN(c3ccncc3)CC2)c(Cl)c1 | 16.7 |
| CN1CCc2cc(NS(=O)(=O)c3ccc(-c4ccc(Cl)cc4)cc3)c(OCCCN3CCCCC3)cc2CC1 | 18.6 |
| CN1CCC(c2ccc(NC(=O)c3ccc(-c4cccc(C(F)(F)F)c4)o3)cc2)CC1 | 10.2 |
| Cc1cc(C(=O)Nc2ccc3c(c2)CCN3C2CCN(Cc3ccc(O)cc3)C2)no1 (configuration not stated) | 3.23 |
| CCOc1cc(C)ccc1C1CCN(CCCCNC(=O)c2ccc(-c3ccc(Cl)cn3)cc2)CC1 | 3.73 |
| CN1CCCN(Cc2ccc(-c3cccc(NC(=O)c4ccc(F)cc4)c3)cc2)CC1 | 1.96 |
| COc1cc(CNc2ncc(-c3ccsc3)c(-c3nccs3)n2)cc(OC)c1 | 9.09 |
| N=C(N)c1nc2ccccc2s1 | 0.71 |
| O=c1cc(NCCCNCc2cc3c(Cl)cc(Cl)cc3[nH]2)[nH]c2ccccc12 | 5.52 |
| Cn1cncc1C(=O)NC1CCN(c2ccnc(Nc3ccc(F)cc3)n2)C1 (configuration not stated) | 1.54 |

| Structure (SMILES) | IFI [%] |
| --- | --- |
| CCOc1ccc2c(=NN=Cc3cccc(OC)c3OC)cc(C)[nH]c2c1 | 2.19 |
| CCOC(=O)CCCOc1c(OC)cc(Cc2cnc(N)nc2N)cc1OC | 2.88 |
| O=C(C=Cc1ccc(Cl)c(Cl)c1)NCCCCCN1CCCC(CCCNC(=O)c2ccc3c(c2)OCO3)C1 (configuration not stated) | 4.55 |
| CCCc1cc(Cc2cnc(N)nc2N)cc(CCC)c1OCCCCC(=O)O | 0 |
| O=S(=O)(Nc1ccc(CCN2CCCCC2CCN2CCCC2)cc1)c1cccc2cccnc12 (configuration not stated) | 3.13 |
| CC(C)CN1C(=O)c2ccccc2C(C(=O)Nc2cccc(C#N)c2)C1c1cccs1 (configuration not stated) | 4.44 |
| O=C(Nc1n[nH]c2nc(-c3ccco3)c(Br)cc12)c1ccc(CN2CCCC2)cc1 | 7.25 |
| COc1cc2nc(NCC3CCCCC3)nc(NCc3ccccc3)c2cc1OC | 6.52 |
| COc1ccc(CNCc2cccc(-c3cccc(-c4nc5cc(F)ccc5[nH]4)c3)c2)cc1 | 11.4 |
| N=C(Nc1nc(-c2ccccn2)cc2ccccc12)c1cccc(Cl)c1 | 8.78 |
| CC(CN1CCN(C)CC1)C(=O)Nc1cccc(-c2ccc(-c3nc4cc(F)ccc4[nH]3)cc2)c1 (configuration not stated) | 6.42 |
| O=C(Nc1cc(Cl)c(Cl)cc1NC(=O)c1cccc(-c2ccccc2)c1O)c1cccc(-c2ccccc2)c1O | 13.9 |
| CC(CN1CCN(C)CC1)C(=O)Nc1ccc(-c2cccc(-c3nc4ccccc4[nH]3)c2)cc1 (configuration not stated) | 4.59 |
| CCN(CC)c1cc(C)c2cc(NC(=O)c3cc(=O)c4ccccc4o3)ccc2n1 | 3.47 |
| Cc1nc2c(Nc3nc(-c4ccncc4)cs3)ncnc2n1-c1ccccc1Cl | 2.29 |
| CCN(CC)CCN(Cc1ccc(-c2ccc(C(F)(F)F)cc2)nc1)C(=O)Cn1cc(Cc2cnn(C)c2)c(=O)n2nc(-c3ccccc3)cc12 | 7.8 |
| C[C@@H](NC(=O)NC(CCN1CCC2(CC1)CN(S(C)(=O)=O)c1ccccc12)c1ccc(Cl)c(Cl)c1)c1ccccc1 (some centres not stated) | 4.14 |
| O=C(NCc1cccc2ccccc12)c1ccc(CNC2CCN(Cc3ccccc3)CC2)cc1 | 5.88 |
| Fc1ccc2[nH]c(-c3cccc(-c4cccc(CNCC5CCCO5)c4)c3)nc2c1 (configuration not stated) | 4 |
| O=C(O)CCSc1ncnc2[nH]cnc12 | 2.92 |
| O=C(Nc1nccs1)c1cc(-c2cccnc2)nc2ccc(Br)cc12 | 0 |
| COc1ccc2c(NN=Cc3ccccc3F)ccnc2c1 | 3.52 |
| OCCN1CCN(C(=S)Nc2ccccc2)CC1 | 0 |

| Structure (SMILES) | IFI [%] |
| --- | --- |
| COc1ccc(C=C2SC(=N)N(c3ccccc3OC)C2=O)cc1 | 8.18 |
| Cn1cncc1C(=O)Nc1cccc(-c2ccc(-c3nc4ccccc4[nH]3)cc2)c1 | 0.89 |
| Cc1c(CNCCCNc2nc3ccccc3[nH]2)sc(C(F)F)c1Br | 3.6 |
| Nc1ccnc2ccc(OCCCCCCc3ccccc3)cc12 | 15.5 |
| CN(C)CCN(Cc1ccccc1-c1ccc(CNCCc2ccccc2)cc1)C(=O)c1ccccc1 | 9.15 |
| CCC(c1ccccc1)c1nn2c(-c3cccs3)nnc2s1 (configuration not stated) | 9.76 |
| CC1(CCc2ccccc2)N=C(N)N=C(N)C1c1ccc(Cl)c(Cl)c1 (configuration not stated) | 2.94 |
| O=C(NCc1ccc(Cl)c(Cl)c1)c1cc(CNC2CCNCC2)ccc1O | 0.72 |
| Cc1[nH]c(C)c(-c2ccc(-c3ccc(Cl)cc3)nc2)c(=O)c1Br | 1.83 |
| CCCCNC(=O)C1CCCN(C(=O)c2ccc(O)c(-c3ccc(Cl)c(Cl)c3)c2)C1 (configuration not stated) | 1.47 |
| N=C(N)c1cccc(OCCCOc2cccc(NC(=O)Nc3ccc([N+](=O)[O-])cc3)c2)c1 | 4.29 |
| O=C(NCc1cc2c(cc1Cl)OCO2)c1ccc(CNC2CCN(Cc3ccccc3)CC2)cc1 | 2.22 |
| OCCN1CCN(Cc2ccc(-c3ccc(-c4nc5cc(C(F)(F)F)ccc5[nH]4)s3)cc2)CC1 | 9.71 |
| O=S(=O)(/C=C/c1ccccc1)N(Cc1ccc(-c2ccc(CNCCc3ccccn3)cc2)cc1)CC1CCCCN1 (configuration not stated) | 7.89 |
| CN1CCC(NCc2ccc(-c3ccc(S(=O)(=O)NCc4ccccc4)cc3)cc2)CC1 | 6.86 |
| CCCCCCNC(=O)C1Cc2c([nH]c3cc(Cl)ccc23)C2(CCN(Cc3ccccc3)CC2)N1 (configuration not stated) | 7.19 |
| N#Cc1cccc(Nc2nccc(Nc3ccc(Oc4ccccc4)cc3)n2)c1 | 3.13 |
| O=C(c1ccc(Cl)c(Cl)c1)N1CCc2c([nH]c3ccccc23)C1CN1CCCC1 (configuration not stated) | 12.7 |
| Cc1cc(N(CCN2CCCCC2)CCN2CCCCC2)nc(Nc2ccc(Cl)cc2)n1 | 5.8 |
| COc1ccccc1CN1CCC(CNC(=O)c2cc(-c3ccc(N(C)C)cc3)cs2)C1 (configuration not stated) | 13.7 |
| N#Cc1ccc(-c2ccc(C(=O)NCC3CCN(CCN4CCC(c5ccc6c(c5OCC(N)=O)CCCC6)CC4)CC3)cc2)cc1 | 8.41 |
| COc1ccc(-c2ccc(NC(=O)c3cccc(F)c3)cc2)cc1CN1CCCN(C)CC1 | 4.95 |
| O=C(Cc1ccc(NC(=O)c2ccc(O)c(-c3ccc(Cl)c(Cl)c3)c2)cc1)NCc1cccc(C(F)(F)F)c1 | 3.68 |
